This note sets out measurements from the supplement of paper PMC10126150.

Sequences with one replicate were seen in a single cluster, so their values are uncertain.
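Note: ATP exposure 15 min at 22 °C before imaging.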

In the data set the test system is ATP. In words: switch fluorescence ratio, 500 uM ATP over buffer (Cy3 cluster intensity, sum of 5 cycles each) (fold (ratio)); higher = stronger signal-on switching upon ATP binding; sequences stand for … in TCGTCGGCAGCGTCAGATGTGTATAAGAGACAGTTTTTTTTTTTTTTTTTTTTTTTTT…TC. Particulars: aptamer strand: ATP DNA aptamer (quencher-CACCTGGGGGAGTATTGCGGAGGAAGG + anchor), 100 nM annealed; ATP concentration: 500 uM; one replicate. In outline:
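The quencher-labelled ATP aptamer, at 100 nM, was annealed to Cy3-labelled switching-strand clusters on a modified Illumina MiSeq flow-cell. The clusters were imaged in selection buffer, then after 15 min with 500 uM ATP at 22 °C, and this buffer/ATP cycle ran five times with NaOH stripping and re-annealing between runs. Per-cluster fluorescence ratios, summed target-cycle over summed buffer-cycle Cy3 intensity, were averaged per switch-domain sequence. Clusters outside 100-1000 RFU were excluded.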
As to GAGTATCGAA, the switch fluorescence ratio is 1.02.

On to TTTTGCAGC, for which the switch fluorescence ratio amounted to 1.09.

Take AAGTTACGGA: the switch fluorescence ratio was 1.13.

For the sequence AAGTCGCCTT, the switch fluorescence ratio came out at 0.964.

For the sequence ACCCGTGGAC, the switch fluorescence ratio is 1.79.

Take GTTTGGATTT: the switch fluorescence ratio was 0.99.

For CGATGAGAC, the switch fluorescence ratio was found to be 1.04.

For GAGGTTAAAA, the switch fluorescence ratio turned out to be 0.98.

CACACTTCCG: the switch fluorescence ratio amounted to 1.22.

As for TTCGCACGGG, the switch fluorescence ratio amounted to 1.03.

Turning to CTACGTATGT, the switch fluorescence ratio came out at 1.08.

For the sequence TATGCCAGTT, the switch fluorescence ratio worked out at 0.938.

With TGGGGCCGCC, the switch fluorescence ratio was 1.

In the case of GGTTTCCTAA, the switch fluorescence ratio was 0.986.

Regarding TACTTGATCA, the switch fluorescence ratio was 1.01.

ACCCGCTCCT: the switch fluorescence ratio was determined as 1.34.

For the sequence TTTCAAGCGC, the switch fluorescence ratio worked out at 1.01.

On to GCCATATT, for which the switch fluorescence ratio is 0.975.

With ATGACGGGG, the switch fluorescence ratio worked out at 0.998.

For the sequence TAGAGCATTC, the switch fluorescence ratio was 1.12.

Regarding TGATGCGCGA, the switch fluorescence ratio worked out at 1.09.

Turning to CTCGGAAAGG, the switch fluorescence ratio was 0.983.

For the sequence TGCCCGTAAG, the switch fluorescence ratio worked out at 1.02.

As for GGGTTGAAGC, the switch fluorescence ratio came to 0.959.

Consider ATACCACTCC, for which the switch fluorescence ratio is 1.25.

As to ATATCTTCGA, the switch fluorescence ratio turned out to be 0.967.

As for CGCTCAAGAT, the switch fluorescence ratio was 1.09.

For the sequence TCGCTCTTTG, the switch fluorescence ratio was 0.99.

As for CACATCATAG, the switch fluorescence ratio is 0.994.

Consider TGTATGACAC, for which the switch fluorescence ratio is 0.972.

As for CGGGTGAGAC, the switch fluorescence ratio was determined as 1.09.

On to TTTTGGATAC, for which the switch fluorescence ratio is 1.08.

For AGAAAGCAAC, the switch fluorescence ratio came out at 1.09.

CATCTATGAA: the switch fluorescence ratio came to 1.01.

On to CATTGGTACT, for which the switch fluorescence ratio was determined as 1.

As for GCAACCACTC, the switch fluorescence ratio came out at 1.51.

In the case of TCCAAAATAA, the switch fluorescence ratio came out at 1.07.

As to GGCCACCGTT, the switch fluorescence ratio is 1.

On to TTCTTTGATG, for which the switch fluorescence ratio was determined as 0.976.

Regarding TTGTGTCATC, the switch fluorescence ratio is 0.995.

With CATAATTATT, the switch fluorescence ratio turned out to be 1.

With ACGTACTCGT, the switch fluorescence ratio was 1.58.

Turning to CGCATAACTA, the switch fluorescence ratio was found to be 2.02.

For AATGGATGCT, the switch fluorescence ratio worked out at 1.01.

In the case of AGCACGACTT, the switch fluorescence ratio is 1.04.

Turning to ATAGACAGGA, the switch fluorescence ratio is 0.945.

Regarding CGTGCGGG, the switch fluorescence ratio is 1.

For AGCGTATGTA, the switch fluorescence ratio is 1.01.

As to CTGGGGCCAG, the switch fluorescence ratio was found to be 1.01.

With GCAACGAAAA, the switch fluorescence ratio is 1.06.

As for GCTCAGGGGC, the switch fluorescence ratio is 1.11.

Turning to TTATGATAAC, the switch fluorescence ratio was found to be 1.04.

Take CCAGTTGTC: the switch fluorescence ratio came to 1.04.

Take CGGCATGG: the switch fluorescence ratio amounted to 1.

Turning to TAGCCCCGCG, the switch fluorescence ratio came to 1.

As for TCGGACAAAT, the switch fluorescence ratio worked out at 1.04.

With TATCGAATGC, the switch fluorescence ratio worked out at 0.906.

Turning to GTGTGTAACG, the switch fluorescence ratio turned out to be 0.97.

As to AGACGCGCCT, the switch fluorescence ratio came out at 1.01.

For the sequence GTAATTATAC, the switch fluorescence ratio came out at 1.08.

ACTAATTGTG: the switch fluorescence ratio was determined as 0.979.

With TTAATCACAG, the switch fluorescence ratio is 0.984.

On to CGGGGTCGCA, for which the switch fluorescence ratio was determined as 0.991.

On to GATGAATATA, for which the switch fluorescence ratio stood at 0.938.

Consider TGGCTCAGAC, for which the switch fluorescence ratio came out at 1.

As to AGTTACGTTG, the switch fluorescence ratio amounted to 1.05.

As to TATAGAACGT, the switch fluorescence ratio was found to be 0.986.

As to CCGGGTCACA, the switch fluorescence ratio came to 1.19.

For the sequence CCCGGCGGCG, the switch fluorescence ratio is 1.01.

Consider TTAGATGTAG, for which the switch fluorescence ratio was found to be 1.01.

Consider TGCTCAGGTA, for which the switch fluorescence ratio was determined as 1.02.

As to CAACAAAGCG, the switch fluorescence ratio stood at 0.945.

Consider TTCCTGGAGC, for which the switch fluorescence ratio was 1.05.

Consider TATTCTGTGT, for which the switch fluorescence ratio was 0.988.

Take GTATAATTGG: the switch fluorescence ratio stood at 0.975.

Turning to AGTATATATG, the switch fluorescence ratio stood at 1.01.

Regarding TAGGAATCGG, the switch fluorescence ratio came to 0.999.

For TACTCGGAAT, the switch fluorescence ratio stood at 1.2.

CTTCCGGCTT: the switch fluorescence ratio is 1.12.
